# Values marked as one replicate rest on one cluster of the flow cell; about a third of the high ones do not repeat.
# Test system: ATP
# Assay: switch fluorescence ratio, 500 uM ATP over buffer (Cy3 cluster intensity, sum of 5 cycles each) (fold (ratio)); higher = stronger signal-on switching upon ATP binding; sequences stand for … in TCGTCGGCAGCGTCAGATGTGTATAAGAGACAGTTTTTTTTTTTTTTTTTTTTTTTTT…TC
# Conditions: aptamer strand: ATP DNA aptamer (quencher-CACCTGGGGGAGTATTGCGGAGGAAGG + anchor), 100 nM annealed; ATP concentration: 500 uM; one replicate
# Procedure, shortened: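 The quencher-labelled ATP aptamer, at 100 nM, was annealed to Cy3-labelled switching-strand clusters on a modified Illumina MiSeq flow-cell. The clusters were imaged in selection buffer, then after 15 min with 500 uM ATP at 22 °C, and this buffer/ATP cycle ran five times with NaOH stripping and re-annealing between runs. Per-cluster fluorescence ratios, summed target-cycle over summed buffer-cycle Cy3 intensity, were averaged per switch-domain sequence. Clusters outside 100-1000 RFU were excluded.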
# 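Note: ATP exposure 15 min at 22 °C before imaging.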
row,Sequence,switch fluorescence ratio
1,TAAGGAGAAA,0.971
2,CGGGCTGGCG,1.26
3,TCCAGATACC,1
4,TGACCTCAAG,0.97
5,ATTAGTGCAA,1.08
6,CCCAAAACAA,1.47
7,GGGGCCGGTT,0.99
8,GTCCATGCCT,1.03
9,CTTGCTCCAT,1.27
10,TTTTAACATG,1
11,CCATTGTAG,1.03
12,CACGGGATTC,1.04
13,CCGGACTTCT,1.06
14,CACTTGTTAA,0.973
15,GTGGTAATAG,1.02
16,CGTTTTCTGG,1.02
17,ATGATGAGAT,0.974
18,GATTCAGCTG,1.04
19,ATCAAGTTGT,0.99
20,ACTAAGTCGT,1.03
21,GAGGCTTAAA,0.992
22,AACTAGAGTG,0.929
23,AGCTGAGACC,1

row,Sequence,switch fluorescence ratio
1,ACGTCGTATC,0.991
2,AGACTACATG,1.03
3,TGCGACGTT,1
4,GATGAAAGCC,1.04
5,TGTGGCATCG,0.963
6,TCCCGAGTAC,1.36
7,AGATAATTTC,0.989
8,ACTCCTCACT,1.5
9,GGGATCTTGG,0.987
10,CTGAGGCTTT,2.41
11,ACAGGACGTA,1
12,TCTCAACAAT,1.6
13,AATAGCGCTG,1.02
14,CGTATTCTT,0.952
15,ATAACCGCGC,2.44
16,TTCAAGCGTC,0.966
17,TCCCAGGAT,1.05
18,TTATTGCTAT,1.01
19,TTTCAGGAGC,2.03
20,ACTTAATGCT,1.04
21,TGAGGCAAGT,1.36
22,TGCCCAGGCG,2.49
23,CCGCGCGCTT,1.99

row,Sequence,switch fluorescence ratio
1,ACTTAGGTTC,1.02
2,CACTGCTGGG,0.991
3,AATGCCCGTG,1.05
4,TTTATCAGCG,0.992
5,TAGTGCGCTT,1.01
6,GGCGTTATAA,1.06
7,ATGATAGACG,0.99
8,CCCAAGGGCC,1
9,CAGCTTAATC,1.06
10,CTGCATAGTC,1.94
11,AGGTGTTTCC,1.02
12,CCAGAGTTAG,1.04
13,TGTGTGGTCT,1.06
14,TCGCAATGAA,5.64
15,TGCATATGGA,0.956
16,TATCCTTGAC,0.989
17,ACCAGTGCGG,1.02
18,AGTTGCTATG,1.03
19,TCAATTCACG,0.987
20,ATTATTTAAC,0.966
21,GGTGTTAACT,1.03
22,AAAACATACT,1.3
23,CTCACCTCAC,1.44

row,Sequence,switch fluorescence ratio
1,TTGGGGCTAA,1.01
2,TCGGTACTTA,1.07
3,CTGATCCACG,1.07
4,GATCATAGCA,0.991
5,TGGATACCTT,1.01
6,GATTGGGCAT,0.974
7,TATTACCATC,1.04
8,GTTGCCGATA,1.03
9,AGGGATTCTC,0.984
10,TGGATTAATT,1.01
11,CCGGCGAAGT,1.1
12,TAGGACGTCG,1.02
13,GTCGTCGGTT,1.03
14,TGTAGCTCTA,1.02
15,TTGTATGGA,0.992
16,CAGGTTGGGA,1.01
17,AGTCTGTGCC,1
18,GGGGCCTCAG,1.01
19,CTTAGGTCTA,0.992
20,CTGGTTCGGA,1.05
21,CGGTACAGTT,1.01
22,CCAGATAAAC,1.03
23,CGGGCCACCG,0.956

row,Sequence,switch fluorescence ratio
1,TACGTAAGAT,1.19
2,GGGCTGACCC,0.974
3,GTTAAAGAAT,0.992
4,CTCAGTTGCG,0.999
5,CAGAGTGCGG,0.996
6,GTGAACTTAT,1.01
7,GTACGGGGG,1.04
8,CATCGGAATA,1.89
9,AGGTGGGAGC,0.94
10,GGGACTGTTG,0.992
11,GTTGTTAGGC,1.04
12,TATAGGGGAG,0.994
13,GATTAGTTTT,1.04
14,CGGTGTTGAC,1.01
15,ACGCCTGCGC,1.06
16,ACGATCCTGA,1
17,TTGTTCGACC,1.06
18,ACTGATGCGA,1.1
19,ACCACAATAT,1.94
20,ATGGTTTTGG,1
21,TAATCTGTCG,0.893
22,TTCTCCTTGA,1.03
23,TTTCCGAGCG,1.09

row,Sequence,switch fluorescence ratio
1,GCGATTGGCA,1.01
2,ATGTATCATC,0.997
3,TATCTAGAAA,1
4,GCTTGCGCTA,1.03
5,AAACGACGCG,1.09
6,TATTGTACGG,1.05
7,TAAAACGCAT,1.34
8,ATGATCTCAT,0.954
9,GGATATTTCG,1.01
10,TTAATTACGT,1.05
11,AGGGGCCGTG,0.965
12,TGAAAATATG,0.988
13,GGCACAATCT,0.986
14,TAGCGATCAG,0.979
15,CGGGTGAGAA,1.02
16,TTTGTCGCAC,1.27
17,TTGGGTGATT,0.972
18,AACGACGATA,1.14
19,AAGCTTGGAT,0.973
20,GATATGGAGA,0.968
21,TGATGGTGTG,0.946
22,TAAAACATGC,1.15
23,AAGAAAATTT,1.06

row,Sequence,switch fluorescence ratio
1,TCTGAGACTG,1.03
2,GGGCCTAGGT,0.992
3,TTAGGTTTCC,0.981
4,GGGGACGAAC,1.24
5,TGGAGGTTTC,1.02
6,GATTAGGGG,0.996
7,GCGGGGCGGA,1.03
8,CCGTGGTCGT,1.05
9,GACCTTTTTG,0.989
10,CACTATGTCA,1.06
11,TAGGACAGTT,1.01
12,CGGAAAAAAA,0.935
13,TCATGGTACA,1.07
14,CAGGTTAGCG,1.01
15,AGAGTTTATC,0.962
16,ATGAGGTGTC,1.02
17,ACCACTTTGA,1.01
18,ATTAGACGAT,0.986
19,AATACGTTGT,0.975

# — the supplement of paper PMC10126150
